# The inconclusive results got no clear call from the source; some entries with a clear call stand among them for comparison. Where the call is inconclusive, the potency comes from a doubtful curve fit. Active and inactive are the calls of the source. Calls follow the shape of the dose curve; as a rule, active = well fitted curve in the direction sought with a large enough effect in the repeat runs; inconclusive = weak or mixed curves; inactive = no such curve, though single readings can be large; an effect the other way counts as inactive or inconclusive.
# Target: Cytochrome P450 1A2 (Homo sapiens) (UniProt P05177)
# Test: Cytochrome P450 Family 1 Subfamily A Member 2 (CYP1A2) small molecule antagonists: luciferase reporter qHTS assay (AID 1671199)
# Settings: P450-Glo CYP1A2 enzyme, luciferin luminescence, 1 h; series mostly up to 115 µM
# How it was run: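 Signal from luciferin formed by CYP1A2 from a proluciferin substrate is read as luminescence, expressed in relative luminescence units. Compounds sit with enzyme 10 min, NADPH-driven reaction runs 1 h, all at room temperature.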
# % is scaled to controls: 0 for no effect and ±100 for the full control effect; potency is read from the fitted curve at half-maximal effect; tags tell the direction and shape of the fitted curve.
# Also: nearly all actives have a fitted effect of over 50% in size.
# Chain of UniProt P05177 (P05177 whole entry, looked up): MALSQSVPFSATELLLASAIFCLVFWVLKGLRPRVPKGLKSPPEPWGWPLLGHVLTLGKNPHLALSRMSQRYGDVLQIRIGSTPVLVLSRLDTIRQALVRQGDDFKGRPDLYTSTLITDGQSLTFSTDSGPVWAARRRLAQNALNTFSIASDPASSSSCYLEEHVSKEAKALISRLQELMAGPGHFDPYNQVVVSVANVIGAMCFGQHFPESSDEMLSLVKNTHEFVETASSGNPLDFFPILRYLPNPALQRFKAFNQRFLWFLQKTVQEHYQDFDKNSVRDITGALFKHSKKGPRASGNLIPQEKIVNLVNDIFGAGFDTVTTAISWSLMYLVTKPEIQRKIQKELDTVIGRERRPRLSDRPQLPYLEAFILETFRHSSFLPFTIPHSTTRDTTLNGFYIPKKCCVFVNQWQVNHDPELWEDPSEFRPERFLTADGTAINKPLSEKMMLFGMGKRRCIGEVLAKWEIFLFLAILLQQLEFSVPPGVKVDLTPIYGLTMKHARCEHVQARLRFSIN
Compound,Potency,"activity change, negative = inhibition"
CCOC(=O)CC(O)(CC(=O)OCC)C(=O)OCC,"inconclusive: 71 µM [inhibitor, partial curve, poor fit]",–
CCC(COC(=O)CCS)(COC(=O)CCS)COC(=O)CCS,"inconclusive: 39.9 µM [inhibitor, partial curve]",–
Cc1nc2ccccc2c(=O)o1,"inconclusive: 45 µM [inhibitor, partial curve]",–
NCC1(Cc2noc(=O)[nH]2)CCCCC1,"inconclusive: 71 µM [inhibitor, partial curve]",–
CCN(CCC#N)c1ccc(N=Nc2c(Cl)cc([N+](=O)[O-])cc2Cl)cc1,"inconclusive: 39.9 µM [inhibitor, partial curve]",–
Cc1cc2nc3ccc(=[N+](C)C)cc-3sc2cc1N,active: 2.75 µM,–
CCCCC/C=C\C/C=C\CCCCCCCC(=O)OC,"inconclusive: 39.5 µM [inhibitor, partial curve]",–
O=c1c(-c2ccccc2)c1-c1ccccc1,active: 1.15 µM,–
CCC(Cl)CC(Cl)C(Cl)C(Cl)C(Cl)C(C)Cl (centres undefined),"inconclusive: 3.46 µM [inhibitor, full curve]",–
CCCCCCCCCCCCCCCO,"inconclusive: 20 µM [inhibitor, full curve]",–
O=C(Oc1ccccc1)c1ccc2ccccc2c1O,active: 5.64 µM,–
BrC(Br)C(Br)Br,"inconclusive: 63 µM [inhibitor, partial curve]",–
CCCCCCCC(=O)Oc1c(Br)cc(C#N)cc1Br,active: 12.6 µM,–
NCCCNCCSP(=O)(O)O,–,inactive: -21.8% [at 10.5 µM]
CCC(=O)c1c(O)cc(O)cc1O,active: 12.9 µM,–
CC(=O)c1ccc[nH]1,"inconclusive: 39.9 µM [inhibitor, partial curve]",–
COC(=O)N/N=C/c1c[n+]([O-])c2ccccc2[n+]1[O-],inactive,–
CCCCCCOC(=O)C(C)CC (centres undefined),inactive,–
CCOc1ccc2ccccc2c1C(=O)N[C@@H]1C(=O)N2[C@@H]1SC(C)(C)[C@@H]2C(=O)O,"inconclusive: 34.7 µM [inhibitor, partial curve]",–

Compound,Potency,"activity change, negative = inhibition"
CN(C)C(=O)Oc1cccc([N+](C)(C)C)c1,inactive,–
COCC(C)O (centres undefined),"inconclusive: 39.9 µM [inhibitor, partial curve]",–
CCCCC/C=C/CC1CC(=O)OC1=O (centres undefined),active: 28.3 µM,–
CCCC(=O)OCOC(=O)C1=C(C)NC(C)=C(C(=O)OC)C1c1cccc(Cl)c1Cl (centres undefined),"inconclusive: 9.77 µM [inhibitor, full curve]",–
O=C1CCCCCN1SSN1CCCCCC1=O,"inconclusive: 28.3 µM [inhibitor, partial curve]",–
COc1cc2c3cc1Oc1cc(ccc1O)C[C@@H]1c4c(cc(OC)c(O)c4Oc4ccc(cc4)C[C@@H]3N(C)CC2)CC[N+]1(C)C,inactive,–
CC1(C)CC(N=C=O)CC(C)(CN=C=O)C1 (centres undefined),"inconclusive: 63.3 µM [inhibitor, partial curve]",–
CC[N+](CC)(CC)CCOC(=O)C(C1CCCC1)C1CCCC1,"inconclusive: 28.8 µM [inhibitor, partial curve]",–
NCCNCCNCCNCCN,"inconclusive: 70.6 µM [inhibitor, partial curve]",inactive: 8.65% [at 10.5 µM]
C=CCOC(=O)COCCC(C)C,inactive,–
Cc1ccc2c(ccc3ccccc32)c1,active: 3.18 µM,–
CCCCCCOC(=O)C(C)C,"inconclusive: 39.9 µM [inhibitor, partial curve]",–
NCCOCCO,"inconclusive: 71.3 µM [inhibitor, single point]",–
CCOCCOCCOCC,inactive,–
C=C(C)C1CC=C(C)C(=O)C1 (centres undefined),inactive,–
CCCCCCCCCCCC(=O)OCC(O)CO (centres undefined),"inconclusive: 89.4 µM [inhibitor, single point]",–
CCCCCCCC/C=C\CCCCCCCC(=O)OCCO,inconclusive: 52.9 µM [inhibitor],–
CC1=NC(C)OC1C (centres undefined),"inconclusive: 89.4 µM [inhibitor, single point]",–
CC(C)c1ccc2cc(C(C)C)ccc2c1,"inconclusive: 17.8 µM [inhibitor, full curve]",–

# Target: Voltage-gated inwardly rectifying potassium channel KCNH2 (Homo sapiens) (UniProt Q12809)
# Test: Human Ether-a-go-go-Related Gene (hERG) channel small molecule antagonists: fluorescence cell-based qHTS assay (AID 1671200);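 as to activity change, negative = inhibition: hERG-expressing U2OS cells given a thallium stimulus after FluxOR II dye loading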
# Settings: hERG-U2OS cells, FluxOR thallium flux fluorescence; series mostly up to 76.8 µM
# How it was run: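 In this thallium-flux screen, overnight-cultured U2OS cells bearing the channel are dye-loaded in darkness for an hour, rested 10 min at room temperature, and then monitored kinetically at 480/540 nm for two minutes post-stimulus.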
# Chain of UniProt Q12809 (Q12809 whole entry, looked up): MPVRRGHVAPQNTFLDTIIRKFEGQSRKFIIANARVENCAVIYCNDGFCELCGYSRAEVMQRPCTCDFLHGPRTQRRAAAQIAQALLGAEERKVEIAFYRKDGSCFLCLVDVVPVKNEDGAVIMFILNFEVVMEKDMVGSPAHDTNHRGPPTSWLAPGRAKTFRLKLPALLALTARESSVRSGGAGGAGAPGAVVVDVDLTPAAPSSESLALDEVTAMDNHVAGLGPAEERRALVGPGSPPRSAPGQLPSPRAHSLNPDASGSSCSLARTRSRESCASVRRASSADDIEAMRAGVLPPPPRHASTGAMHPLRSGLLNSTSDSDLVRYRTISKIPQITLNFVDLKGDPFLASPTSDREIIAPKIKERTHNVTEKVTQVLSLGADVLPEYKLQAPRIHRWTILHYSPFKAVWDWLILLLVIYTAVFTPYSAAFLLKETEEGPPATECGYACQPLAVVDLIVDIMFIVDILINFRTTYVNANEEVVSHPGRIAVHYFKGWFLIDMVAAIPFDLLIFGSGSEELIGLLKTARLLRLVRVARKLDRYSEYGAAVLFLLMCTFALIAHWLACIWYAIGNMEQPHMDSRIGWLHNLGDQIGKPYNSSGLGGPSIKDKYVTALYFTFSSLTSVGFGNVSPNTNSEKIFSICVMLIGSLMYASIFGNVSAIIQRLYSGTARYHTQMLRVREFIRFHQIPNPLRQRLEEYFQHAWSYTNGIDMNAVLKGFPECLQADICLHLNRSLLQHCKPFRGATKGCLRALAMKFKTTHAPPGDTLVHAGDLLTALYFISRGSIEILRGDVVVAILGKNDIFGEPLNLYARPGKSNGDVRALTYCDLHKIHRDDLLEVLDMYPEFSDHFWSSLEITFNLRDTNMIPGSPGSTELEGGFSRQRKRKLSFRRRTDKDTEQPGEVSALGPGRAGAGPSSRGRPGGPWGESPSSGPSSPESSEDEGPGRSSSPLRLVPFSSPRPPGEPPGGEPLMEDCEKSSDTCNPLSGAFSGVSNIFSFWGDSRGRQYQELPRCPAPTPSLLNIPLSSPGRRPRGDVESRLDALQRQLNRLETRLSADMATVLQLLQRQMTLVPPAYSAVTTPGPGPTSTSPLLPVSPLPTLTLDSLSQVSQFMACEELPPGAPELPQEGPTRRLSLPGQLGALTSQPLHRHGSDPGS
row,Compound,Potency
1,CCC(COC(=O)CCS)(COC(=O)CCS)COC(=O)CCS,inconclusive: 49 µM [inhibitor]
2,CCN(CCC#N)c1ccc(N=Nc2c(Cl)cc([N+](=O)[O-])cc2Cl)cc1,"inconclusive: 54.9 µM [inhibitor, single point]"
3,CCCCC/C=C\C/C=C\CCCCCCCC(=O)OC,"inconclusive: 11 µM [inhibitor, full curve]"
4,CCC(Cl)CC(Cl)C(Cl)C(Cl)C(Cl)C(C)Cl (centres undefined),"inconclusive: 4.24 µM [inhibitor, partial curve]"
5,O=C(Oc1ccccc1)c1ccc2ccccc2c1O,"inconclusive: 54.9 µM [inhibitor, single point]"
6,CCCCCCCC(=O)Oc1c(Br)cc(C#N)cc1Br,"inconclusive: 34.5 µM [inhibitor, partial curve, poor fit]"
7,COCC(C)O (centres undefined),inactive
8,CCCC(=O)OCOC(=O)C1=C(C)NC(C)=C(C(=O)OC)C1c1cccc(Cl)c1Cl (centres undefined),"inconclusive: 23.9 µM [inhibitor, partial curve, poor fit]"
9,CC[N+](CC)(CC)CCOC(=O)C(C1CCCC1)C1CCCC1,inconclusive: 9.52 µM [inhibitor]
10,CC1=NC(C)OC1C (centres undefined),"inconclusive: 54.9 µM [inhibitor, single point]"
